The whole screen tested about 310,000 compounds, of which about 2,200 (0.71%) showed an effect of 50% or more. Effects have a minus sign here. The list shows a part of the results.
Molecular target: human ether-à-go-go-related gene (hERG) potassium channel (human, UniProt Q12809)
Test: primary screen, population patch clamp on CHO cells stably expressing hERG

Sequence of human ether-à-go-go-related gene (hERG) potassium channel (Q12809 whole entry, looked up): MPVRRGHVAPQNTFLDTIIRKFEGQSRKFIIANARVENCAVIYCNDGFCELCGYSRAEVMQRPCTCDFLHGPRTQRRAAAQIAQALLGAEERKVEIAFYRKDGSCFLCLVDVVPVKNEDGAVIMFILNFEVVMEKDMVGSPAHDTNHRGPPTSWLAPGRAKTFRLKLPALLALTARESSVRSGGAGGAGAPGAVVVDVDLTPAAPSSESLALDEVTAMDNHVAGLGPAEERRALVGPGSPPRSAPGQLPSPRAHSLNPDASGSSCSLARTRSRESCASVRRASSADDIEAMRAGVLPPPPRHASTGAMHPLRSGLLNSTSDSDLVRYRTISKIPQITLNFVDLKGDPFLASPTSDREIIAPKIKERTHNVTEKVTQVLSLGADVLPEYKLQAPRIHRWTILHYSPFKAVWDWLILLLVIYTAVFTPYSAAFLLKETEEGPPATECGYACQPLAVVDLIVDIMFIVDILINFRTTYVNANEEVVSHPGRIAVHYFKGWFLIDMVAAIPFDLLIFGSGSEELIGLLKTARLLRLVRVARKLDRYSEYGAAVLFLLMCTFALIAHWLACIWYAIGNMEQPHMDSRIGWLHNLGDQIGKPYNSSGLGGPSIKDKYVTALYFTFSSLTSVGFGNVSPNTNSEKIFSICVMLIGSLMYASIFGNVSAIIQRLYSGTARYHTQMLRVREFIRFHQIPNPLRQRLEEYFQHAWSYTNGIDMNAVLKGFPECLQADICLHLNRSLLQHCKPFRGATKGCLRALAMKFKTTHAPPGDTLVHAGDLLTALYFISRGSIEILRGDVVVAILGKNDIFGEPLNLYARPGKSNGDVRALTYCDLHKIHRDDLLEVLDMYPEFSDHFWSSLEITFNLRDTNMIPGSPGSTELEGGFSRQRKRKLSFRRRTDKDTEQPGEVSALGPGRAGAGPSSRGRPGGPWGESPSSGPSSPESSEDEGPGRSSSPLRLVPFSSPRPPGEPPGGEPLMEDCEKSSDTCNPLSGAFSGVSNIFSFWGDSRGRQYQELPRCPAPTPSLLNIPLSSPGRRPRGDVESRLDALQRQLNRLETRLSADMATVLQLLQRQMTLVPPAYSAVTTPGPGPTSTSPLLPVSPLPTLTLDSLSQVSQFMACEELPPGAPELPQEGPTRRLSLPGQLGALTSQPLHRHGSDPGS

| SMILES | hERG current change (%, negative = inhibition) at 1uM [%] |
| --- | --- |
| O=C(NCc1cccc(C(F)(F)F)c1)C1CCC(=O)N(C2CCCCCC2)C1 (stereo not shown) | 6.37 |
| O=C(CC1C(=O)NCCN1Cc1cccc(C(F)(F)F)c1)NC1CCCCCC1 (stereo not shown) | 7.17 |
| C(=C\CSc1ncn[nH]1)/CSc1ncn[nH]1 | 2.44 |
| COC(=O)c1cn(-c2nc(C)c3c(n2)CCC3)nn1 | 4.76 |
| O=C(NCCCN1CCOCC1)c1ccc2nc(Cc3cccc(Cl)c3)oc2c1 | 3.29 |
| O=C(CC(Nc1ccc(F)cc1)C(=O)O)c1ccccc1 (stereo not shown) | 15.5 |
| COc1cc(NC(=S)Nc2ccccn2)cc(OC)c1 | 3.52 |
| O=C(CSc1nnc(C2CC2)n1CC1CCCO1)Nc1ccc(Cl)cc1 (stereo not shown) | -18.5 |
| COc1ccc(OC)c(NC(=O)C(=O)N/N=C/c2ccccc2[N+](=O)[O-])c1 | 8.29 |
| O=S(=O)(NCCCSc1ccccc1)c1ccccc1F | -47.3 |
| CN(C)C(C(=O)Nc1cc(Cl)cc(Cl)c1)c1ccccc1 (stereo not shown) | 9.54 |
| COc1cc(OC)cc(C(=O)NN(CCC#N)C2=NS(=O)(=O)c3ccccc32)c1 | 15.5 |
| C=CCOC(=O)/C=C/C(=O)NC(N)=O | 13.1 |
| CCOC(=O)C(/C(N)=N/C(=O)Nc1ccccc1)=C(\C)O | 12.1 |
| O=C(CCNC(=O)c1ccc(Br)cc1)Nc1cccc(S(=O)(=O)N2CCCC2)c1 | 7.02 |
| O=C(Oc1cccc(N2C(=O)CCC2=O)c1)C1CC(=O)N(c2ccc(Br)cc2)C1 (stereo not shown) | 7.95 |
| Cc1ccccc1NC(=O)C(C)SCc1ccccc1 (stereo not shown) | 1.66 |
| CSc1ccc(C2NN=C(c3ccccc3)S2)cc1 (stereo not shown) | -13.9 |
| COc1ccc(C=C2C=C(C(C)(C)C)C(=O)C(C(C)(C)C)=C2)cc1OC | 16.1 |
| COc1ccc(NC(=O)CN(C)C(=O)CNC(=O)c2sc3ccccc3c2Cl)cc1 | -12 |
| Cc1cc([N+](=O)[O-])ccc1NC(=O)CSc1nncn1-c1ccccn1 | -3.56 |
| Cc1ccc(-n2c(C)c3c(C)nnc(C)c3c2C)cc1C | -4.79 |
| CC(C)Cn1c(N)c(C(=O)NCC2CCCO2)c2nc3ccccc3nc21 (stereo not shown) | 6.47 |

| SMILES | hERG current change (%, negative = inhibition) at 1uM [%] |
| --- | --- |
| COc1ccc(C(=O)NC(=S)Nc2ccccc2F)cc1 | 9.05 |
| Cc1ccc(NC(=O)CSC(C)C(=O)OC(C)C(=O)NC2CCCCC2C)cc1 (stereo not shown) | -2.33 |
| CC(C(=O)N/N=C/c1ccc(N(C)C)c(Br)c1)N(c1ccccc1)S(C)(=O)=O (stereo not shown) | 12 |
| CCN1CCN(S(=O)(=O)Cc2ccccc2Cl)CC1 | 14.6 |
| CC(=O)c1c(C)[nH]c(C(=O)COc2ccc3c(C)cc(=O)oc3c2)c1C | 17.2 |
| CCOc1ccc(NC(=O)Nc2cccn(Cc3ccccc3)c2=O)cc1 | 12.1 |
| CC(C)(C)c1csc(NC(=O)Cc2cccs2)n1 | 11.2 |
| O=C(O)CCCNC(=O)CC1S/C(=N/N=C/c2ccccc2O)NC1=O (stereo not shown) | 16.9 |
| Cc1nn(C)c(C)c1NC(=O)CCSc1nc(-c2ccco2)cc(C(F)(F)F)n1 | 8.03 |
| COc1cccc(CC(=O)OCC(=O)NNC(=O)c2ccc(Br)cc2)c1 | 5.5 |
| O=[N+]([O-])c1ccc(Nc2cccc(F)c2)nc1 | 18.1 |
| Cc1cccc(-n2nnc(C(=O)NCc3ccccc3)c2N)c1 | 7.4 |
| FC(F)Oc1ccc(/C=N/NC(=S)Nc2cc(C(F)(F)F)ccc2Cl)cc1 | 10.4 |
| CCN1CCN(Cc2cc(=O)oc3cc(C)cc(C)c23)CC1 | -45 |
| COc1ccc(-c2cc(=O)oc3c(C)c(O)c(CN(C)C)cc23)cc1 | 6.02 |
| CC(C)CNc1nc(N)c([N+](=O)[O-])c(NCC2CCCO2)n1 (stereo not shown) | 2.3 |
| CCc1ccc(/C=N/NC(=O)c2cc(-c3ccncc3)nc3ccccc23)s1 | 12.1 |
| CCOc1ccc2nc(SCC(=O)Nc3nonc3C)[nH]c2c1 | 6.98 |
| O=C(Nc1nc2c(Cl)ccc(Cl)c2s1)c1ccco1 | 13.4 |
| O=C1CS/C(=C\[N+](=O)[O-])N1c1ccc(OC(F)(F)F)cc1 | 8.61 |
| C=CCNc1cc(N2CCCC2)ccc1[N+](=O)[O-] | 6.9 |
| Cc1ccc(NC(=S)N2CCC(c3ccc(C)cc3)C2)cc1 (stereo not shown) | 5.38 |
| Cc1cc(NC(=O)CCC(=O)N(c2ccccc2)C(C)C(=O)NC2CCCC2)no1 (stereo not shown) | 8.55 |

| SMILES | hERG current change (%, negative = inhibition) at 1uM [%] |
| --- | --- |
| CCN=c1sc2ccccc2n1CC(O)COc1ccccc1 (stereo not shown) | 5.32 |
| Cc1ccc(OCCOC(=O)c2sc(=S)n(C)c2C)cc1 | 11.9 |
| COC(=O)CCCNC(=O)c1ccc2oc(CCCc3ccccc3)nc2c1 | 7.86 |
| Cn1c(SCC(=O)NC2CCCC2)nnc1-c1ccncc1 | 16.7 |
| CC(=O)Oc1ccc(N2C(=O)C3C4C=CC(O4)C3C2=O)cc1 (stereo not shown) | 22.8 |
| CN(C(=O)CO/N=C/c1ccc(OC(F)F)cc1)C1CCS(=O)(=O)C1 (stereo not shown) | -32.9 |
| COCCNC(=O)COc1ncnc2scc(-c3ccc(F)cc3)c12 | 9.63 |
| Cc1cc(N2CCN(C(c3ccccc3)c3ccccc3)CC2)n2ncnc2n1 | 8.18 |
| O=C1C2C3C=CC(C2C(=O)N1c1ccc(O)cc1)C1C2C(=O)N(c4ccc(O)cc4)C(=O)C2C31 (stereo not shown) | -8.85 |
| CC(=O)Nc1ccc(S(=O)(=O)NC2(C(F)(F)F)NC(=O)N(c3ccc(C)cc3)C2=O)cc1 (stereo not shown) | 9.35 |
| CCCOc1ccc(CC(=O)NCCc2ccccc2)cc1OC | 11.4 |
| CC(=O)NC(Cc1ccc(F)c(F)c1)C(=O)NC1CCN(C(=O)c2ccc(Cl)cc2)CC1 (stereo not shown) | 11.5 |
| O=C(COC(=O)c1ccc(Cl)c(S(=O)(=O)N2CCCCCC2)c1)Nc1ccccc1 | 16.3 |
| Cc1nn(-c2ccccc2)c(C)c1-c1ccccc1O | 12.8 |
| COC(=O)c1ccccc1N1C(=O)[C@@H]2C(c3ccc(F)cc3)=NO[C@@H]2C1=O | 4.26 |
| COc1ccccc1NC(=O)c1ccc(NC(=O)CSc2ncn[nH]2)cc1 | 20.1 |
| COc1ccc(C2C(=O)N(C3CCCCC3)CC(=O)N2Cc2ccco2)cc1 (stereo not shown) | -21.2 |
| N#Cc1c(-c2ccc(Cl)cc2)ccn2nc(CCC(=O)O)nc12 | 16.1 |
| CCCCc1ccc(/C(C)=N/NC(=O)C2CCCC2)cc1 | 9.44 |
| CCOc1ccc(-n2c(Cc3cc(=O)[nH]c(=O)[nH]3)nnc2SCC(N)=O)cc1 | -0.0858 |
| O=C1NC(=O)N(c2ccccc2)C(=O)/C1=C\c1ccc([N+](=O)[O-])o1 | 5.54 |
| CCOC(=O)c1c(S(=O)(=O)NCC(=O)N2CCN(c3ccc(OC)cc3)CC2)c(C)n(C)c1C | 14.6 |
| CCOc1ccc(NC(=O)CN(C)C(=O)c2ccc(NC3CC3)c([N+](=O)[O-])c2)cc1OCC | -18.3 |

| SMILES | hERG current change (%, negative = inhibition) at 1uM [%] |
| --- | --- |
| O=C(CCNS(=O)(=O)c1cccc2nsnc12)Nc1ccc2c(c1)OCCO2 | 12 |
| CC(C)=CCSc1nnc(CCNC(=O)OC(C)(C)C)o1 | -33.9 |
| Cc1ccc(CSC2=CS(=O)(=O)c3ccccc3N2)cc1 | 7.13 |
| COCCNC(=O)CN(C(=O)Cn1nnc2ccccc21)c1ccc(F)c(Cl)c1 | 4.93 |
| COCCn1c(=O)[nH]c2cc(C(=O)NCCCN3CCN(c4ccc(F)cc4)CC3)ccc2c1=O | 14.2 |
| CC1CCC(NC(=O)c2ccc(S(C)(=O)=O)cc2)CC1 (stereo not shown) | 6.09 |
| CC(C)CNC(=S)NNC(=O)c1ccc(OC(F)F)cc1 | -10.3 |
| O=C(OC(C(=O)Nc1ccc(Cl)cc1C(F)(F)F)c1ccccc1)C1=COCCO1 (stereo not shown) | 4.96 |
| COc1ccc(C=O)cc1CSc1ccccn1 | 10.7 |
| CN1CCN(c2ccc([N+](=O)[O-])c(NCC3CCCO3)c2)CC1.Cl (stereo not shown) | -1.67 |
| O=C(COC(=O)C1CCC1)NCc1ccc(Cl)cc1Cl | 5.58 |
| Clc1ccc(-c2ccnc(Oc3ccc4ccccc4c3)n2)cc1 | 11.9 |
| COC(=O)CCC(=O)NNC(=O)c1ccc(Cl)cc1Cl | 14.8 |
| C=CCNc1cc(C)oc(=O)c1C(=O)CC | 4.45 |
| Cc1c(C(O)CN2CCC(C(N)=O)CC2)c2ccccc2n1C (stereo not shown) | -1.87 |
| CCOc1cccc2cc(C(=O)NCc3cccnc3)c(=O)oc12 | 5.87 |
| O=C1NCCCc2c1no[n+]2[O-] | 16.8 |
| Cn1cccc1Cc1nnc(SCC(=O)Nc2ccc(F)cc2)n1CCc1ccccc1 | -6.41 |
| O=C(Nc1ccc(OC(F)(F)F)cc1)Nc1cccnc1 | -9.71 |
| CC(=O)C1=C(O)CCC1=NCCc1ccccc1 | 11.9 |
| S=C(NCCN1CCOCC1)NC1CCCC1 | 9.45 |
| CCN1CCN(C(=O)COc2ccc(S(=O)(=O)NC(C)C)cc2)CC1 | 11.9 |

Source: article PMC4336329 (PLoS ONE, 2015)
